# Measured values as given in PubChem BioAssay AID489038 (National Center for Advancing Translational Sciences (NCATS), 2010).
# Inconclusive results, whose numbers are uncertain, are shown with a selection of clear calls. Potencies of inconclusive entries are left out as doubtful fits. The source made the active and inactive calls. Calls follow the shape of the dose curve; as a rule, active = well fitted inhibition curve with a large enough effect; inconclusive = small, poorly fitted or top-dose-only effect, or effect the other way; inactive = no such curve, though single readings can be large or run the other way.
# Test: DHR3 selectivity assay for inhibitors of ROR gamma transcriptional activity
# Conditions: Drosophila S2 Gal4-DHR3 UAS-luciferase, 20 h; activity change, negative = inhibition: at 92.2 µM (top of the series)
# Summary of the method: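 Luciferase luminescence was read after 20 h at ambient temperature with 700 uM CuSO4 (final), added 1 h after compound. The cell line was Drosophila Schneider stably carrying Gal4-DHR3 transactivation-domain fusion and UAS-luciferase reporter constructs.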
# % is scaled to controls: 0 for no effect and ±100 for the full control effect; potency is read from the fitted curve at half-maximal effect; tags tell the direction and shape of the fitted curve.
SMILES,"activity change, negative = inhibition",Potency
COc1ccc(C(CC(=O)N2CCCC(C)C2)c2ccc3c(c2)OCO3)c(O)c1 (stereo not given),inactive: 13%,–
Cc1cc(C)c(O)c(C(CC(=O)N2CCCC(C)C2)c2ccc3c(c2)OCO3)c1 (stereo not given),–,"inconclusive [inhibitor, single point]"
COc1ccc(CNC(=O)[C@H](Cc2ccccc2)NC(=O)C2CCN(C(=O)[C@@H]3CCCN3C(=O)OC(C)(C)C)CC2)cc1,–,"inconclusive [inhibitor, full curve, poor fit]"
COc1cc(O)c(C(CC(=O)N2CCCC(c3ccccc3)C2)c2ccc3c(c2)OCO3)c(OC)c1 (stereo not given),–,"inconclusive [activator, single point]"
CCN(CC)c1ccc(/C=N/n2c(-c3ccccc3Br)n[nH]c2=S)cc1,–,"inconclusive [activator, full curve]"
COc1cc(O)c(C(CC(=O)N2CCCC(C(=O)N3CCCCC3)C2)c2ccc3c(c2)OCO3)c(OC)c1 (stereo not given),–,"inconclusive [activator, full curve, poor fit]"
COc1cc(O)c(C(CC(=O)N2CCCC(C)(C)C2)c2ccc3c(c2)OCO3)c(OC)c1 (stereo not given),inactive: 6.53%,–
COCC1CCCN(C(=O)CC(c2ccc3c(c2)OCO3)c2c(O)cc(OC)cc2OC)C1 (stereo not given),inactive: 0.668%,–
CC(=O)[C@@]1(O)CC[C@@H]2[C@H]3C[C@@H](C)C4=CC(=O)C=C[C@]4(C)[C@@]3(F)[C@@H](O)C[C@]21C,–,"inconclusive [activator, single point]"
COc1cc(O)c(C(CC(=O)NC2CCCc3ccccc32)c2ccc3c(c2)OCO3)c(OC)c1 (stereo not given),inactive: 37%,–
COc1ccc(C(CC(=O)N2CCCC(C)C2)c2c(O)cc(OC)cc2OC)c(OC)c1 (stereo not given),inactive: 15.3%,–
COc1cc(O)c(C(CC(=O)N2CCOCC2)c2ccc(OC)c(OC)c2)c(OC)c1 (stereo not given),–,"inconclusive [activator, partial curve, poor fit]"
COc1cc(O)c(C(CC(=O)N2CCCC(C(C)C)C2)c2ccc3c(c2)OCO3)c(OC)c1 (stereo not given),inactive: -23%,–
COc1cc(O)c(C(CC(=O)N2CC(C)NC(C)C2)c2ccc3c(c2)OCO3)c(OC)c1 (stereo not given),–,"inconclusive [inhibitor, full curve, poor fit]"
CCOC(=O)Cn1c(CN2CCc3ccccc3C2)nc2c1c(=O)n(C)c(=O)n2C,–,active: 6.45 µM
COc1cc(OC)c(C(CC(=O)N2CCCC(C)C2)c2ccc3c(c2)OCO3)c(OCc2ccccc2)c1 (stereo not given),–,active: 14.4 µM
C=C1Nc2c(-c3ccc(F)cc3)cnn2C(N)=C1c1ccccc1,–,"inconclusive [inhibitor, full curve, poor fit]"
Cc1cccc(-c2nc3cc(NC(=O)C4CCCO4)ccc3o2)c1 (stereo not given),–,active: 2.29 µM
O=C(CCCOc1ccccc1)Nc1nc2ccccc2[nH]1,–,"inconclusive [activator, full curve]"
Cc1cc(C)c2[nH]c(C(=O)Nc3ccc4c(c3)OCO4)cc2c1,–,active: 0.204 µM
COCC1CCCCN1C(=O)c1cc(COc2ccc3ncccc3c2)on1 (stereo not given),–,active: 9.11 µM
COc1ccc(C(CC(=O)N2CCCC(C)C2)c2c(O)cc(OC)cc2OC)cc1 (stereo not given),–,"inconclusive [activator, single point]"
COc1cc(OC)c2c(c1)OC(=O)CC2c1ccc2c(c1)OCO2 (stereo not given),–,"inconclusive [activator, single point]"
COc1ccccc1C(CC(=O)N1CCCCC1)c1ccccc1 (stereo not given),–,"inconclusive [activator, full curve, poor fit]"
COc1cc(O)c(C(CC(=O)Nc2cccc3ccccc23)c2ccc3c(c2)OCO3)c(OC)c1 (stereo not given),–,"inconclusive [activator, full curve, poor fit]"
CC1CCCN(C(=O)CC(c2ccc3c(c2)OCO3)c2ccc(O)cc2O)C1 (stereo not given),inactive: 18.5%,–
CN1CCN(C(=O)CCN2C(=O)/C(=C/c3ccccc3Cl)SC2=S)CC1,–,"inconclusive [activator, full curve, poor fit]"
CC1CCCN(C(=O)CC(c2ccc3c(c2)OCO3)c2ccc(F)cc2O)C1 (stereo not given),–,"inconclusive [inhibitor, partial curve, poor fit]"
COc1cc(O)c(C(CC(=O)N2CC(C)CC(C)C2)c2ccc(N(C)C)cc2)c(OC)c1 (stereo not given),–,inconclusive [inhibitor]
C[C@H]1O[C@@H](O[C@H]2[C@@H](O)C[C@@H](O[C@H]3[C@@H](O)C[C@H](O[C@H]4CC[C@@]5(C)[C@H](CC[C@@H]6[C@@H]5CC[C@]5(C)[C@@H](C7=CC(=O)OC7)CC[C@]65O)C4)O[C@@H]3C)O[C@@H]2C)C[C@H](O)[C@@H]1O,–,"inconclusive [inhibitor, full curve]"
